Laboratory results reported in PubChem BioAssay AID463173 (ICCB-Longwood Screening Facility, Harvard Medical School, 2010).
The whole screen tested about 52,000 compounds, of which about 4,300 (8.3%) were called active. Rule as the data show it: active = survival mostly below about 52% (no sharp cut-off); inactive = mostly above about 56%. Some of the results follow.

system: DeltatarO mutant; assay: S. aureus survival, RN4220 and DeltatarO strains – OD600, teichoic acid synthesis inhibitors, primary screen (AID 463173); settings: S. aureus RN4220 wild type/DeltatarO growth, OD600, 18 h, active compounds read low, screened at 18.75 µg/mL (by protocol)

| Compound | survival |
| --- | --- |
| O=C(NCCc1ccccc1)C(=O)Nc1cccc(Br)c1 | inactive: 68% |
| COc1ccc(CNC(=O)Cn2c(=O)oc3cc(S(=O)(=O)N4CCCC4)ccc32)cc1 | inactive: 93% |
| CCCOc1ccc(C(=O)Nc2c(C(=O)c3ccc(C)cc3)oc3ccccc23)cc1 | inactive: 70% |
| Cc1cccc(S(=O)(=O)c2cn(Cc3ccccc3)c3cc(N4CCCCC4C)c(F)cc3c2=O)c1 (stereo unspecified) | inactive: 79% |
| Cc1cc(C(F)F)n2nc(C(=O)Nc3ccc(F)c(Cl)c3)nc2n1 | inactive: 78% |
| CCc1nc2ccc(C(=O)N3CCN(c4ccc(Cl)cc4)CC3)cc2nc1CC | inactive: 99% |
| Cc1ccc(Cl)cc1N1CCN(C(=O)c2ccc(C)c(-n3c(C)nc4cccnc43)c2)CC1 | inactive: 113% |
| COc1ccc2c(C)c(CCC(=O)NCCc3ccc(Cl)cc3)c(=O)oc2c1 | inactive: 52% |
| CCc1ccc(-c2nn(CC(=O)NC3CCCCC3)c3c2cnc2ccc(OC)cc23)cc1 | inactive: 98% |
| COc1ccc(CC(=O)Nc2sc3c(c2C(=O)Nc2c(C)cccc2C)CCCCC3)cc1 | active: 47% |
| COc1cccc(NC(=O)/C(C#N)=C\c2cn(Cc3ccc(Cl)cc3)c3ccccc23)c1 | inactive: 77% |
| COC(=O)Cc1ccc2c3ccccc3n(C)c2c1 | inactive: 100% |
| COc1cc(C2CC(=O)Nc3c2c(=O)nc2c(C)cccn32)cc(OC)c1OC (stereo unspecified) | inactive: 56% |
| Cc1ccc(NC(=O)C(Cc2ccccc2)NS(=O)(=O)c2cccc3nsnc23)c(C)c1 (stereo unspecified) | inactive: 125% |
| CCS(=O)(=O)N1CCN(C(=O)c2ccc(OC)cc2)CC1 | inactive: 102% |
| NNC(=O)CNC(=O)c1cccs1 | inactive: 79% |
| CCOc1ccc(C(=O)N(CC#N)CC#N)cc1 | inactive: 79% |
| COc1cccc(Nc2nc(-c3ccccc3)c3cc(C)ccc3n2)c1 | active: 12% |
| Cc1cccc(CNC(=O)c2ccc(Cn3c(=O)c4cccn4c4cccnc43)cc2)c1 | active: 48% |

| Compound | survival |
| --- | --- |
| O=C(CC1N=C2c3ccccc3N=C(SCc3ccccc3F)N2C1=O)NCc1cccs1 (stereo unspecified) | inactive: 101% |
| CCn1c(=O)n(CC)c2cc(N3CCCCC3)c(NC(=O)Nc3cc(Cl)ccc3OC)cc21 | inactive: 81% |
| CC(C)C(=O)Nc1ccc2nc(SCCOc3ccccc3)sc2c1 | inactive: 94% |
| CCOC(=O)c1c(C)[nH]c(CCC(=O)Nc2ccccc2C(=O)OC)c1C | inactive: 94% |
| C=CCNC(=O)c1cccc(Br)c1 | inactive: 72% |
| COc1ccc(-n2c(-c3ccco3)nc3c(cnn3-c3ccc(C)cc3)c2=O)cc1 | inactive: 73% |
| Cc1ccc(N2CCN(C(=O)c3cn(C)c4ccc(S(=O)(=O)N(C)C5CCCCC5)cc4c3=O)CC2C)cc1 (stereo unspecified) | inactive: 91% |
| COc1ccc(CCNC(=O)CCS(=O)(=O)c2ccc3c(c2)oc(=O)n3C)cc1OC | inactive: 99% |
| Cc1nn2c(-c3cccc(NC(=O)c4ccc(Cl)cc4)c3)nnc2c2ccccc12 | inactive: 116% |
| CCN1CCC(N(Cc2ccc3c(c2)OCO3)C(=O)Nc2ccc(Br)c(C)c2)CC1 | inactive: 100% |
| CCS(=O)(=O)N1CCc2cc(C(=O)Nc3cc(Cl)ccc3C)ccc21 | inactive: 72% |
| O=C(c1ccc2c(=O)n(CCc3ccccc3)c(=O)[nH]c2c1)N1CCN(c2ccc(Cl)cc2)CC1 | inactive: 65% |
| CCn1c(C)c(C)c2cc(C(=O)NCCc3ccc(C)cc3)ccc21 | inactive: 85% |
| CCOC(=O)/C(C)=C1\NC(C)(C)Cc2ccccc21 | inactive: 92% |
| CCOc1ccc(C(=O)N2CCN(Cc3cc(=O)n4nc(-c5ccccc5Cl)sc4n3)CC2)cc1 | inactive: 85% |
| O=C(Nc1ccc2nn(-c3ccccc3)nc2c1)c1ccc(-c2cccc(Cl)c2)o1 | inactive: 105% |
| CCOc1ccc(NS(=O)(=O)c2ccc(NC(=O)N3CCCC3)cc2)cc1 | inactive: 101% |
| O=C(c1cccs1)N1CCCc2cc(NS(=O)(=O)c3ccc(F)cc3)ccc21 | inactive: 135% |
| CC(C)Cn1c(/C=C/c2ccc(F)cc2)nc2ccccc21 | active: -4% |

| Compound | survival |
| --- | --- |
| COCCCNC(=O)CCc1c(C)nc2cc(-c3ccc(Cl)cc3)nn2c1C | inactive: 110% |
| COc1ccccc1NC(=O)C1=C(C)Nc2nc(SCc3cc(C)ccc3C)nn2C1c1ccccc1 (stereo unspecified) | inactive: 116% |
| OC1N(CN2CCN(c3ccccc3F)CC2)c2ccccc2C12OCCCO2 (stereo unspecified) | inactive: 99% |
| CC(=O)N1CCc2cc(CNC(=O)Nc3ccccc3C(F)(F)F)ccc21 | inactive: 78% |
| Cc1cccc(Cn2nnc3c(=O)[nH]c(C4CCCN(C(=O)c5ccc(C(C)(C)C)cc5)C4)nc32)c1 (stereo unspecified) | active: 18% |
| CCCN1CCCc2cc(CN(CCCN3CCOCC3)C(=O)Nc3ccc(OCC)cc3)ccc21 | inactive: 72% |
| COc1ccc2c(CNC3CCC(C)CC3)c(C(=O)O)n(Cc3ccccc3)c2c1 (stereo unspecified) | inactive: 74% |
| COc1ccccc1C(=O)NCCc1csc(-c2ccc(C(F)(F)F)cc2)n1 | inactive: 126% |
| CCc1ccc(C2CC(=O)N(c3cccc(C(F)(F)F)c3)C3=C2C(=O)OC3)cc1 (stereo unspecified) | active: 57% |
| CCOCCc1nn2c(=O)cc(COC(=O)c3ccc(NC(=O)c4ccc(F)cc4)cc3)nc2s1 | active: 32% |
| Cc1ccc(C)c(NC2=C(c3ccc(C(F)(F)F)cc3)C(=O)c3ccccc32)c1 | inactive: 65% |
| O=C(NCc1ccc2c(c1)OCO2)c1cccnc1 | inactive: 103% |
| O=C(COCc1cc(-c2ccc3c(c2)OCO3)on1)N1CCN(c2cccc(C(F)(F)F)c2)CC1 | inactive: 92% |
| O=C(Nc1ccc2[nH]ncc2c1)/C(=C/c1ccco1)NC(=O)c1ccccc1 | inactive: 86% |
| CCCS(=O)(=O)c1nc(S(=O)(=O)c2ccc(C)cc2)c(NC(C)c2ccccc2)s1 (stereo unspecified) | inactive: 117% |
| CN1C(C(=O)NC(C)(C)C)=CC(c2ccc3c(c2)OCO3)=NS1(=O)=O | inactive: 86% |
| COc1cccc(NS(=O)(=O)c2ccc3[nH]cc(C(=O)NCCc4ccc(C)cc4)c(=O)c3c2)c1 | inactive: 102% |
| Cc1cc(C)c2oc(C(=O)Nc3nc4ccc(Cl)cc4s3)cc(=O)c2c1 | inactive: 61% |
